The list shows a part of the results. Antibody binding of pooled human sera (four to six donors per pool; dilution not stated) to peptides of the Trypanosoma cruzi antigen TSSA on microarrays. Quantile-normalised fluorescence in arbitrary units, mean of duplicate arrays; higher = more binding. No active / inactive call. The uninfected pools are read here as the healthy donors of the same country. The strongest signals lie near the top of the scale (about 60,000).
What was measured:
Experiment in all cases: antibody binding signal (normalised fluorescence) (arbitrary fluorescence units); higher = stronger serum antibody binding to peptide
[1] = tested on: pooled sera of chronic Chagas disease patients, Argentina
Method: (§1)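 Microarray of 15-residue peptides over residues 30-55 of Trypanosoma cruzi TSSAII, each with 1 to 10 substitutions at naturally variable positions, probed with one serum pool per country.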

[2] = tested on: pooled sera of chronic Chagas disease patients, Bolivia
Method: as §1

[3] = tested on: pooled sera of chronic Chagas disease patients, Brazil
Method: as §1

[4] = tested on: pooled sera of chronic Chagas disease patients, Colombia
Method: as §1

[5] = tested on: pooled sera of chronic Chagas disease patients, Mexico
Method: as §1

[6] = tested on: pooled sera of chronic Chagas disease patients, USA
Method: as §1

[7] = tested on: pooled sera of uninfected people, Argentina
Method: as §1

[8] = tested on: pooled sera of uninfected people, Bolivia
Method: as §1

[9] = tested on: pooled sera of uninfected people, Brazil
Method: as §1

[10] = tested on: pooled sera of uninfected people, Colombia
Method: as §1

[11] = tested on: pooled sera of uninfected people, Mexico
Method: as §1

[12] = tested on: pooled sera of uninfected people, USA
Method: as §1

KDKKTAAGETPSQSG
antibody binding signal [1]: 187 | antibody binding signal [2]: 246 | antibody binding signal [3]: 243 | antibody binding signal [4]: 214 | antibody binding signal [5]: 183 | antibody binding signal [6]: 476 | antibody binding signal [7]: 107 | antibody binding signal [8]: 103 | antibody binding signal [9]: 96 | antibody binding signal [10]: 244 | antibody binding signal [11]: 80.7 | antibody binding signal [12]: 124

GTDNKTATGEAPSQP
antibody binding signal [1]: 18300 | antibody binding signal [2]: 35400 | antibody binding signal [3]: 43000 | antibody binding signal [4]: 311 | antibody binding signal [5]: 523 | antibody binding signal [6]: 23400 | antibody binding signal [7]: 193 | antibody binding signal [8]: 531 | antibody binding signal [9]: 1190 | antibody binding signal [10]: 135 | antibody binding signal [11]: 151 | antibody binding signal [12]: 105

KDKKPATGEAPSPSG
antibody binding signal [1]: 42400 | antibody binding signal [2]: 11000 | antibody binding signal [3]: 39800 | antibody binding signal [4]: 152 | antibody binding signal [5]: 175 | antibody binding signal [6]: 30900 | antibody binding signal [7]: 730 | antibody binding signal [8]: 212 | antibody binding signal [9]: 140 | antibody binding signal [10]: 158 | antibody binding signal [11]: 94.9 | antibody binding signal [12]: 137

STPPSGKDNKPAAGE
antibody binding signal [1]: 43500 | antibody binding signal [2]: 34400 | antibody binding signal [3]: 30900 | antibody binding signal [4]: 312 | antibody binding signal [5]: 36300 | antibody binding signal [6]: 14500 | antibody binding signal [7]: 504 | antibody binding signal [8]: 633 | antibody binding signal [9]: 293 | antibody binding signal [10]: 282 | antibody binding signal [11]: 266 | antibody binding signal [12]: 221

SGTDKKPATGEAPSQ
antibody binding signal [1]: 47400 | antibody binding signal [2]: 45400 | antibody binding signal [3]: 49700 | antibody binding signal [4]: 4550 | antibody binding signal [5]: 353 | antibody binding signal [6]: 41400 | antibody binding signal [7]: 768 | antibody binding signal [8]: 596 | antibody binding signal [9]: 306 | antibody binding signal [10]: 438 | antibody binding signal [11]: 2840 | antibody binding signal [12]: 208

PPSGTENKTATGEAP
antibody binding signal [1]: 47900 | antibody binding signal [2]: 40500 | antibody binding signal [3]: 41200 | antibody binding signal [4]: 592 | antibody binding signal [5]: 3750 | antibody binding signal [6]: 23200 | antibody binding signal [7]: 1700 | antibody binding signal [8]: 313 | antibody binding signal [9]: 247 | antibody binding signal [10]: 318 | antibody binding signal [11]: 196 | antibody binding signal [12]: 395

DKKTATGETPSQPGA
antibody binding signal [1]: 991 | antibody binding signal [2]: 1810 | antibody binding signal [3]: 31900 | antibody binding signal [4]: 263 | antibody binding signal [5]: 310 | antibody binding signal [6]: 6910 | antibody binding signal [7]: 217 | antibody binding signal [8]: 773 | antibody binding signal [9]: 301 | antibody binding signal [10]: 186 | antibody binding signal [11]: 532 | antibody binding signal [12]: 215

KEKKAAAGGTPSQPG
antibody binding signal [1]: 192 | antibody binding signal [2]: 187 | antibody binding signal [3]: 297 | antibody binding signal [4]: 1690 | antibody binding signal [5]: 137 | antibody binding signal [6]: 1160 | antibody binding signal [7]: 133 | antibody binding signal [8]: 76.8 | antibody binding signal [9]: 1000 | antibody binding signal [10]: 122 | antibody binding signal [11]: 132 | antibody binding signal [12]: 92.2

TENKTATGGAPSQPG
antibody binding signal [1]: 22300 | antibody binding signal [2]: 1800 | antibody binding signal [3]: 5040 | antibody binding signal [4]: 422 | antibody binding signal [5]: 420 | antibody binding signal [6]: 880 | antibody binding signal [7]: 319 | antibody binding signal [8]: 174 | antibody binding signal [9]: 336 | antibody binding signal [10]: 137 | antibody binding signal [11]: 545 | antibody binding signal [12]: 181

GKDKKPAAGEAPSQS
antibody binding signal [1]: 442 | antibody binding signal [2]: 1190 | antibody binding signal [3]: 7260 | antibody binding signal [4]: 757 | antibody binding signal [5]: 1130 | antibody binding signal [6]: 11100 | antibody binding signal [7]: 95.3 | antibody binding signal [8]: 85 | antibody binding signal [9]: 85.2 | antibody binding signal [10]: 80 | antibody binding signal [11]: 65 | antibody binding signal [12]: 66.6

GTDNKPAAGGTPSQP
antibody binding signal [1]: 4280 | antibody binding signal [2]: 1090 | antibody binding signal [3]: 42600 | antibody binding signal [4]: 2070 | antibody binding signal [5]: 314 | antibody binding signal [6]: 356 | antibody binding signal [7]: 236 | antibody binding signal [8]: 738 | antibody binding signal [9]: 1260 | antibody binding signal [10]: 431 | antibody binding signal [11]: 831 | antibody binding signal [12]: 114

GKENKTAAGETPSQS
antibody binding signal [1]: 4630 | antibody binding signal [2]: 810 | antibody binding signal [3]: 11200 | antibody binding signal [4]: 7460 | antibody binding signal [5]: 7670 | antibody binding signal [6]: 17600 | antibody binding signal [7]: 471 | antibody binding signal [8]: 212 | antibody binding signal [9]: 161 | antibody binding signal [10]: 201 | antibody binding signal [11]: 207 | antibody binding signal [12]: 207

GTDKKTATGGTPSQP
antibody binding signal [1]: 504 | antibody binding signal [2]: 582 | antibody binding signal [3]: 816 | antibody binding signal [4]: 4940 | antibody binding signal [5]: 526 | antibody binding signal [6]: 1120 | antibody binding signal [7]: 476 | antibody binding signal [8]: 186 | antibody binding signal [9]: 227 | antibody binding signal [10]: 646 | antibody binding signal [11]: 892 | antibody binding signal [12]: 110

PPSGKENKTAAGGAP
antibody binding signal [1]: 9060 | antibody binding signal [2]: 593 | antibody binding signal [3]: 4600 | antibody binding signal [4]: 3920 | antibody binding signal [5]: 3950 | antibody binding signal [6]: 4060 | antibody binding signal [7]: 3480 | antibody binding signal [8]: 1370 | antibody binding signal [9]: 200 | antibody binding signal [10]: 695 | antibody binding signal [11]: 464 | antibody binding signal [12]: 407

GKEKKPATGEAPSQS
antibody binding signal [1]: 41300 | antibody binding signal [2]: 10200 | antibody binding signal [3]: 40100 | antibody binding signal [4]: 5440 | antibody binding signal [5]: 6880 | antibody binding signal [6]: 31600 | antibody binding signal [7]: 779 | antibody binding signal [8]: 156 | antibody binding signal [9]: 120 | antibody binding signal [10]: 168 | antibody binding signal [11]: 98.1 | antibody binding signal [12]: 285

TENKPAAGGAPSQPG
antibody binding signal [1]: 47200 | antibody binding signal [2]: 1650 | antibody binding signal [3]: 21700 | antibody binding signal [4]: 1440 | antibody binding signal [5]: 904 | antibody binding signal [6]: 2640 | antibody binding signal [7]: 252 | antibody binding signal [8]: 453 | antibody binding signal [9]: 390 | antibody binding signal [10]: 192 | antibody binding signal [11]: 254 | antibody binding signal [12]: 224

KEKKAATGGTPSQSG
antibody binding signal [1]: 338 | antibody binding signal [2]: 223 | antibody binding signal [3]: 189 | antibody binding signal [4]: 243 | antibody binding signal [5]: 217 | antibody binding signal [6]: 481 | antibody binding signal [7]: 157 | antibody binding signal [8]: 92.5 | antibody binding signal [9]: 203 | antibody binding signal [10]: 174 | antibody binding signal [11]: 88.5 | antibody binding signal [12]: 112

KDKKPAAGEAPSPSG
antibody binding signal [1]: 255 | antibody binding signal [2]: 372 | antibody binding signal [3]: 2260 | antibody binding signal [4]: 523 | antibody binding signal [5]: 538 | antibody binding signal [6]: 11400 | antibody binding signal [7]: 97.9 | antibody binding signal [8]: 105 | antibody binding signal [9]: 129 | antibody binding signal [10]: 97.8 | antibody binding signal [11]: 90.5 | antibody binding signal [12]: 98.6

KEKKTAAGETPSQPG
antibody binding signal [1]: 186 | antibody binding signal [2]: 259 | antibody binding signal [3]: 15800 | antibody binding signal [4]: 202 | antibody binding signal [5]: 145 | antibody binding signal [6]: 1290 | antibody binding signal [7]: 112 | antibody binding signal [8]: 87.7 | antibody binding signal [9]: 111 | antibody binding signal [10]: 352 | antibody binding signal [11]: 68.8 | antibody binding signal [12]: 139

From the supplement of paper PMC10441789
